# Data published in the supplement of paper PMC7125110.
# ± gives the standard error. This sample is rich in variants without activity.
# B1: glmS ribozyme (parent)
# chain: AUAAAAGCGCCAGAACUACAGAAAUGUAGUUGACGAGGAGGAGGUUUAUCGAAUUUUCGGCGGAUGCCUCCAAA
# Variants of: B1
# Experiment: self-cleavage kobs at 2500 uM GlcN6P; higher = faster cleavage; RNA array
# Conditions: with glucosamine-6-phosphate
# In short: (§1)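 Weighted Michaelis–Menten fits across concentrations supplied kcat and KM, based on kobs from one- or two-exponential decay fits to normalised per-tile medians. The data came from barcoded ribozyme variants transcribed in situ by E. coli RNA polymerase on sequenced MiSeq chips and tracked at 37 °C by a hybridised Cy3 probe. Glucosamine-6-phosphate (40 μM to 10 mM) in HEPES/KCl/Mg(OAc)2 buffer was flowed in.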
row,Variant,self-cleavage kobs at 2500 uM GlcN6P [s⁻¹]
1,G41U A52C U69G,< 1e-05
2,U47C U56A A64G,0.000616 ± 0.00019
3,G35U G41C G43U C50U,< 1e-05
4,C34G G43C U54C,< 1e-05
5,G35U A36G U65C,< 1e-05
6,A42G G51U C67U,< 1e-05
7,A33G A53G A64U C71U,< 1e-05
8,C34A U49G U55A,< 1e-05
9,A33C U56C C71A,< 1e-05
10,G32U C34U A42G U46C A64C,< 1e-05
11,C34U A36C A39U,< 1e-05
12,U46C U57C G59A,< 1e-05
13,A53U G60C C61A,< 1e-05
14,G37C A64U C68G,< 1e-05
15,A36C C50U G59A,< 1e-05
16,A33C A36U G37U G43U U57C G59A,< 1e-05
17,G37A G43U G62U,< 1e-05
18,G32U G35U A53G C58A,< 1e-05
19,G32C G60A C61G,< 1e-05
20,G40U C61G C67A,< 1e-05
21,G32C G38C G51A,< 1e-05

row,Variant,self-cleavage kobs at 2500 uM GlcN6P [s⁻¹]
1,C34A C58G C67U,< 1e-05
2,A33C G35U A53G U54C,< 1e-05
3,A48U G60C C67A,< 1e-05
4,A33U G37A U55A C61U,< 1e-05
5,A33C G41U A42C A64G C68U,< 1e-05
6,G40U U49A G62C C68U,< 1e-05
7,G35A G41U C70A,< 1e-05
8,A42U C50A G51A,< 1e-05
9,G41C U46G A64U U65C,< 1e-05
10,A36G G40C C61G A64G,< 1e-05
11,A36C G60C A64U U65C,< 1e-05
12,C34U G44U U49C G59A C61A,< 1e-05
13,A33G G35A G43C G60A C71G,< 1e-05
14,A42G U46A C58G G60U,< 1e-05
15,G35A A42U,< 1e-05
16,A33U U47A A52U,< 1e-05
17,C34U G35A,< 1e-05
18,G37U G38A U46C,< 1e-05
19,G35A G41A G66U,< 1e-05
20,A33G G59C C68U,< 1e-05
21,G38C G44A A52G,< 1e-05

row,Variant,self-cleavage kobs at 2500 uM GlcN6P [s⁻¹]
1,G37U G51C A52U,< 1e-05
2,A39G G41U A42G,0.000339 ± 9.9e-05
3,G35C A36U G59U C61G,< 1e-05
4,G40A G51C U55G G62U,< 1e-05
5,G41U G51U A52C G66A C70A,< 1e-05
6,C34U G35A G44U,< 1e-05
7,G37A G41U C67U,< 1e-05
8,A52U G63U U65A C70U,< 1e-05
9,G32U U49C U57C C71U,< 1e-05
10,U45C A52C U54C,< 1e-05
11,G44U G51U C68U,< 1e-05
12,G32U A33C A48U G62C,< 1e-05
13,A33C A53G U55G,0.000103 ± 2.8e-05
14,A36G U46A C70A,< 1e-05
15,G51U A53U C58G G63C,< 1e-05
16,A39G G41C G51U C61U,< 1e-05
17,U47A U55C U69C,0.000127 ± 4.1e-05
18,A33C G40A A52U C61G,< 1e-05
19,U49C A53U C70U,< 1e-05
20,G51C C61G,< 1e-05
21,G37A C68A C70G,< 1e-05

row,Variant,self-cleavage kobs at 2500 uM GlcN6P [s⁻¹]
1,G41A A42U U47C U55A C68A,< 1e-05
2,A33C U56C G63U,< 1e-05
3,G37U U57C C58A G62U,< 1e-05
4,G35U G38A A53U,< 1e-05
5,C34A U69G,< 1e-05
6,A36U G41U A42C,< 1e-05
7,G37U A52U U54C,< 1e-05
8,U49C C50G A64C,< 1e-05
9,A39U G40C C68G,< 1e-05
10,G38U G40U C70A,< 1e-05
11,A53C C61A G62U,< 1e-05
12,G40U G41U G60A,< 1e-05
13,U54G G62A,< 1e-05
14,G37A G40A U56G,5.62e-05 ± 1.8e-05
15,C34U G40U A64C,< 1e-05
16,G37U G66U C68G C71G,4.28e-05 ± 2e-05
17,G41C U47G,3.37e-05 ± 1.6e-05
18,C34G A36C A42C,< 1e-05
19,A48C U57C G62A,< 1e-05
20,G32C U56C U57C G66U,< 1e-05

# Variants of: B1
# Experiment: self-cleavage kobs at 10000 uM GlcN6P; higher = faster cleavage; RNA array
# Conditions: with glucosamine-6-phosphate
# In short: as §1
row,Variant,self-cleavage kobs at 10000 uM GlcN6P [s⁻¹]
1,G37C A64U C68G,< 1e-05
2,G40A G51C U55G G62U,< 1e-05
3,G37A G41U C67U,< 1e-05
4,A33C A53G U55G,0.000163 ± 2.9e-05
5,G35U G38A A53U,< 1e-05
6,G41C U47G,0.000117 ± 2.8e-05
